We go through one molecule from paper PMC7363125.

These are yes or no findings as the source states them, for the method shown. In cells and extracts the contact can be indirect. Some entries that bind do so weakly or less than the wild type. Sequences can lack the tags named with a protein.

In the experiment the target is T1, GST-PLEKHA7 WW1 + WW2 domain (1-162), mutation within the WW2 domain at position 84 (human) (UniProt Q6IQ23).
T1 sequence: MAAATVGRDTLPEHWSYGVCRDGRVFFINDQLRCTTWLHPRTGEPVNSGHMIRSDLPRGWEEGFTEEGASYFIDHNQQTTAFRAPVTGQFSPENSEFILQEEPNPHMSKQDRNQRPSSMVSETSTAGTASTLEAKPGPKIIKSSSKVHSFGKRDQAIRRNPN
The experiment is described as follows: pull-down; 5 ug GST-PLEKHA7 WW bait (E. coli) coupled to GSH-Sepharose beads, washed, incubated 1 h at 4 °C with normalized HEK cell lysate holding PDZD11-HA or CFP-HA; immunoblot with anti-HA; only the target purified. (In general: In western blotting, separated proteins are transferred to a membrane and probed.)

B1: PDZD11-HA (human) full-length (protein, UniProt Q5EBL8 1-140)
chain: MDSRIPYDDYPVVFLPAYENPPAWIPPHERVHHPDYNNELTQFLPRTITLKKPPGAQLGFNIRGGKASQLGIFISKVIPDSDAHRAGLQEGDQVLAVNDVDFQDIEHSKAVEILKTAREISMRVRFFPYNYHRQKERTVH
As to B1, the binding entry is given as “binds”.
